# Assay results taken from PubChem BioAssay AID492947 (National Center for Advancing Translational Sciences (NCATS), 2010).
# In all, about 330,000 compounds went through this assay and about 80 (0.02%) were called active. Inconclusive means that the source gave no clear call. Such entries were picked first, then a sample of the others. The call rests on the fitted dose curve; in most records, active means well fitted activation curve with a large enough effect; inconclusive means small, poorly fitted or top-dose-only effect; inactive means flat fitted curve, though single readings scatter. Potencies of inconclusive entries are left out as doubtful fits.
# Molecular target: Beta-2 adrenergic receptor (Homo sapiens) (UniProt P07550)
# Chain of UniProt P07550 (P07550 whole entry, looked up): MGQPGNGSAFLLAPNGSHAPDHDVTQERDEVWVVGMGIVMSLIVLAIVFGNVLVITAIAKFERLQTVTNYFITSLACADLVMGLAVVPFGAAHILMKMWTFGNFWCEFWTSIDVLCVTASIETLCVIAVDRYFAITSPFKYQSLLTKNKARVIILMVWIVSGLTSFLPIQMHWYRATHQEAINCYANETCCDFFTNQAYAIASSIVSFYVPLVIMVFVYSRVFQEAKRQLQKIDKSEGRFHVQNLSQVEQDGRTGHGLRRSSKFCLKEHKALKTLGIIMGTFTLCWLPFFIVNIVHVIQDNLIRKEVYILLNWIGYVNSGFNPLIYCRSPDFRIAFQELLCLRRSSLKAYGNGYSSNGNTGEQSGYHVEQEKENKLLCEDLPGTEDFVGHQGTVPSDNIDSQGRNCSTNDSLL
# Experiment: qHTS assay of beta-arrestin-biased ligands of beta2-adrenergic receptor; further: nearly all actives have a fitted effect of over 65% in size;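 on activation: 0% = DMSO controls and full agonism = EC100 isoproterenol or metaproterenol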
# Settings: beta-arrestin recruitment to beta2AR, cell-based reporter; series mostly up to 46.1 µM; activation: at the top concentration
# In short: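 Arrestin-recruitment (Tango) reporter: ligand-bound beta2-AR recruits beta-arrestin, releasing tTA, which upregulates luciferase. Titrations of up to 46 microM incubated 18 hr at 37 degrees C before luminescent readout.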
# Potency means the concentration at half of the fitted maximal effect; tags describe the fitted curve by direction and shape.
Structure (SMILES),Potency,activation
CCOc1cccc(C(c2c(C)n(C)n(-c3ccccc3)c2=O)c2c(C)n(C)n(-c3ccccc3)c2=O)c1OC,"inconclusive [rising, single point]",
Cc1sc2nc(CSCC(=O)Nc3c(F)cccc3F)[nH]c(=O)c2c1C,"inconclusive [rising, single point]",
COc1ccc(CN2CCCC(C(=O)c3ccc(SC)cc3)C2)cc1Cn1cccn1 (stereo not given),"inconclusive [rising, single point]",
CCOC(=O)CC(=O)CSc1ncnc2c1oc1ccccc12,,inactive: -0.0534%
CC1(C)C/C(=N\NC(=S)Nc2ccccc2F)c2cc(O)ccc2O1,"inconclusive [rising, single point]",
C=CCNC(=S)N/N=C/c1ccc(C)s1,active: 5.62 µM,
COc1ccc(N2C(=O)CS/C2=N\C(=S)Nc2ccccc2)cc1,active: 5.62 µM,
O=c1c(Cl)c(NCCCO)cnn1-c1nc2ccccc2[nH]1,"inconclusive [rising, single point]",
Cn1c(CNC(=O)c2ccccc2F)nnc1SCC(=O)c1ccccc1,"inconclusive [rising, single point]",
O=C(CSC(=S)N1CCCCC1)c1c(F)cccc1F,"inconclusive [rising, single point]",
Cc1ccc(S(=O)(=O)Nc2cccnc2)cc1,"inconclusive [rising, single point]",
C=CCn1c(O)c(N=NC(=S)Nc2ccccc2C)c2cc(S(=O)(=O)N3CCOCC3)ccc21,"inconclusive [rising, single point]",
O=C(/C=C/c1ccccc1)Oc1cccc2cccnc12,"inconclusive [rising, single point]",
Nc1ncnc(Oc2cccc3cccnc23)c1[N+](=O)[O-],"inconclusive [rising, single point]",
O=C(c1ccc(Br)cc1)C(CN1CCOCC1)c1ccccc1 (stereo not given),,inactive: -0.482%
O=C1CCCCc2sc(Br)c([N+](=O)[O-])c2N1,,inactive: -0.38%
COc1cc(/C=N/NC(=S)Nc2cccnc2)cc(OC)c1OC,"inconclusive [rising, single point]",
O=C(C[C@H]1C[C@H](C(=O)N2CCCCC2)[C@@]2(CCc3ccccc3)c3[nH]c4cc(-c5ccco5)ccc4c3CCN2C1=O)NCCC1=CCCCC1,"inconclusive [rising, single point]",
COc1ccc(CNCCS(=O)(=O)NC2CCCC2)cc1,,inactive: -0.731%
c1cnc2c(c1)ccc1cccnc12,"inconclusive [rising, single point]",
